Several values for one entry are separate records, joined by “and”; a condition that tells them apart may be missing. Identical values can stand only once. Out of some 220,000 compounds screened, about 16,000 (7.3%) were called active. Inconclusive results, whose numbers are uncertain, are shown with a selection of clear calls. Calls follow the shape of the dose curve; as a rule, active = well fitted inhibition curve with a large enough effect (not every such curve was filed as active); inconclusive = small, poorly fitted or top-dose-only effect, or another doubt; inactive = no such curve, though single readings can be large or run the other way. Potencies beside an inconclusive call are fits to weak or partial responses and may not hold up.
Each molecule was assayed against Aldehyde dehydrogenase 1A1 (Homo sapiens) (UniProt P00352) (assay: qHTS Assay for Inhibitors of Aldehyde Dehydrogenase 1 (ALDH1A1)). Conditions: Purified ALDH1A1, NADH fluorescence, propionaldehyde substrate; series mostly up to 75.3 µM.
Chain of UniProt P00352 (P00352 whole entry, looked up): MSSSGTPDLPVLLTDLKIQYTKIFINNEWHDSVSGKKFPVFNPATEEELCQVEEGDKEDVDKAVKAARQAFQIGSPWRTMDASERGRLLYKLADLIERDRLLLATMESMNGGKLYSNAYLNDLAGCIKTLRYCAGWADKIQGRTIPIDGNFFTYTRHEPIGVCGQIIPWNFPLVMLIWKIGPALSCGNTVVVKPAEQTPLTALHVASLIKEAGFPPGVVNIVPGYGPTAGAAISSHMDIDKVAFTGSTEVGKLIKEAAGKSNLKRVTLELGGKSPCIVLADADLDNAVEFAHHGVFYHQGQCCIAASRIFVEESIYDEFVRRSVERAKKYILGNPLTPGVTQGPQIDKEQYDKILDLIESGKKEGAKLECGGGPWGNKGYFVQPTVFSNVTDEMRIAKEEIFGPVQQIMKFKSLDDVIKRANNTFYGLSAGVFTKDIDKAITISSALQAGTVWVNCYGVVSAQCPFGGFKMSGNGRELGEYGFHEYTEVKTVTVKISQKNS

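For activity, negative = inhibition in this document: plate controls were no enzyme wells and a reference inhibitor.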
Potency is read from the fitted curve at half-maximal effect; tags tell the direction and shape of the fitted curve.

Potency, inactive:
O=C(c1ccc(-n2cccc2)cc1)N1CCN(Cc2ccccc2)CC1
O=C(Nc1ccccc1)c1ccc2c(c1)OCO2
Cc1ccc2c(c1)C(=O)[C@@]1(O)CCN(c3ccccc3)C1=N2
COc1ccc(Nc2nc(C)cc(C)c2C(N)=O)cc1
Cc1ccc(NC2=C(Cl)C(=O)OC2NC(=O)c2ccccc2)cc1 (centres undefined)
CN1CCN(C(=O)c2ccc(N(C)S(=O)(=O)c3cccs3)cc2)CC1
NCCC[C@@H](CC(=O)N[C@@H]1CCCC[C@H]1C(=O)N[C@H](CC(=O)N[C@@H](CCC(=O)O)CC(=O)O)Cc1ccccc1)NC(=O)C[C@H](Cc1c[nH]c2ccccc12)NC(=O)[C@@H]1CCCC[C@H]1N
O=C(NNC1=C(C(=O)C(F)(F)F)CCC1)c1ccncc1
COc1ccc(NC(=O)c2ccc(-n3cccn3)nc2)c(OC)c1
CCOc1ccc(C2/C(=C(\O)c3ccc(OC)c(OC)c3)C(=O)C(=O)N2c2cc(C)on2)cc1OC (centres undefined)

Potency, inconclusive:
COc1ccc(C(=O)N/N=C/c2c(CO)cnc(C)c2O)cc1 31.6 µM [inhibitor, partial curve]
COc1ccc(S(=O)(=O)N(CC(=O)O)c2ccccn2)cc1 31.6 µM [inhibitor, partial curve]
C=CCN1C(=O)C(CC(=O)Nc2ccc(OC)cc2)N(Cc2ccco2)C1=S (centres undefined) 39.8 µM [inhibitor, single point]
CCOC(=O)CC(=O)CSc1nc2c(sc(=S)n2-c2ccc(OCC)cc2)c(=O)[nH]1 20 µM [inhibitor, partial curve]
COc1cccc(CN2C(=O)C3CCCN3c3ccc(S(=O)(=O)N4CCOCC4)cc32)c1 (centres undefined) 14.1 µM [inhibitor, partial curve]
COc1cc2ccc(=O)oc2cc1O 3.55 µM [inhibitor, single point] and 3.16 µM [inhibitor, partial curve] and 28.2 µM [inhibitor, partial curve]
O=[N+]([O-])c1ccc2nc(SCc3ccccc3Cl)sc2c1 39.8 µM [inhibitor, single point]
COc1cc(/C=C/C(=O)Nc2nnc(C(C)(C)C)s2)cc(OC)c1OC 31.6 µM [inhibitor, partial curve]
Cc1cc(/C=N\NC(=O)COc2cccc3cccnc23)c(C)n1-c1ccc(Br)cc1 35.5 µM [inhibitor, single point]
O=c1c(-c2ccc(F)cc2)nc2cnc(N3CCNCC3)nc2n1-c1ccccc1 28.2 µM [inhibitor, partial curve]
Cc1cccc(CNc2cc(-c3ccc(C(=O)N(C)C)cc3)ncn2)c1 25.1 µM [inhibitor, partial curve]
CCOC(=O)c1sc(NC(=O)Cn2nnc3sc4c(c3c2=O)CCC(C(C)(C)C)C4)nc1C (centres undefined) 39.8 µM [inhibitor, single point]
O=C(O)CCN1C(=O)c2ccc(NC(=O)c3ccco3)cc2C1=O 28.2 µM [inhibitor, single point]
COc1ccc(N2CCN(C(=O)CNC(=O)c3cn(-c4ccccc4OC)c(=O)c4ccccc34)CC2)cc1 28.2 µM [inhibitor, single point]
COc1ccc(C2CC(=O)NC3=C2C(=O)CCC3)cc1Cl (centres undefined) 28.2 µM [inhibitor, single point]
CCC1CCCCN1Cc1ccc(OC)c(C)c1 (centres undefined) 22.4 µM [inhibitor, single point]
CC(=O)OCC1=C(C(=O)O)N2C(=O)C(NC(=O)c3ccc(COc4ccc(Cl)cc4)o3)C2SC1 (centres undefined) 22.4 µM [inhibitor, single point]
CNC(=O)c1sc(-c2ccccc2)nc1C 31.6 µM [inhibitor, single point]
O=C(Nc1nc2c(s1)C(=O)CCC2)c1ccccc1 22.4 µM [inhibitor, single point]
CCC(C)c1c(O)nc(SCC(=O)c2ccccc2)[nH]c1=O (centres undefined) 39.8 µM [inhibitor, single point]
CC(C)OC(=O)c1cc2c(ccn2C)n1CC(=O)N(Cc1ccccc1)c1ccc(F)cc1 39.8 µM [inhibitor, single point]
CN(C)c1ccc(/C=c2\sc3n(c2=O)CCCN=3)cc1 25.1 µM [inhibitor, single point]
CCN(CC)S(=O)(=O)c1ccc2c(c1)nc(CCC(=O)Nc1ccccc1Cc1ccccc1)n2CC 20 µM [inhibitor, partial curve]

Potency, active:
COc1cc(C=NCC2OCCc3ccccc32)cc(OC)c1 (centres undefined) 22.4 µM
COc1ccc2cnn(Cc3ccccc3)c(=O)c2c1OC 3.55 µM
CC1=C(C(=O)Nc2ccccc2C(F)(F)F)C(c2ccc(C)s2)NC(=S)N1 (centres undefined) 0.631 µM
c1ccc(-c2noc(CSc3nnnn3C3CCCCC3)n2)cc1 3.16 µM
CC(C)Sc1oc(-c2ccco2)nc1S(=O)(=O)c1ccc(F)cc1 20 µM
O=Cc1ccc(Oc2cc(-c3ccccc3)nc(-c3ccccc3)n2)cc1 22.4 µM
COc1ccc(-c2nnn(CC(=O)c3ccc4c(c3)OCCO4)n2)cc1OC 28.2 µM
COc1cc(C(c2c(C)[nH][nH]c2=O)c2c(C)[nH][nH]c2=O)ccc1OC(C)C 14.1 µM
CCOC(=O)C1(C)C=C(Nc2ccc(OC)cc2)C(=O)N1c1ccc(OC)cc1 (centres undefined) 2.82 µM

activity, negative = inhibition, inactive:
CN(C)C[C@@H](O)c1ccc(Cl)c2ccccc12 -6.35% [at 13.5 µM]
COC(=O)[C@@H]1CC[C@H](C)[C@@H](c2ccc(C)cc2)N1C(=O)c1ccc(/C=N\OCC[C@@H]2C=C[C@H](OC(C)=O)[C@H](COC(C)=O)O2)cc1 -4.89% [at 13.5 µM]

From PubChem BioAssay AID1030 (National Center for Advancing Translational Sciences (NCATS), 2008)
